# Assay results as given in the supplement of paper PMC3334620.
# Whole data set: some 33,000 sequences, median “E-score (-0.5 to 0.5)” near -0.043, cut for the highest 2% near 0.37. This is one part of the list.
# Molecular target: T1, Upc2 (UniProt Q12151)
# T1 sequence: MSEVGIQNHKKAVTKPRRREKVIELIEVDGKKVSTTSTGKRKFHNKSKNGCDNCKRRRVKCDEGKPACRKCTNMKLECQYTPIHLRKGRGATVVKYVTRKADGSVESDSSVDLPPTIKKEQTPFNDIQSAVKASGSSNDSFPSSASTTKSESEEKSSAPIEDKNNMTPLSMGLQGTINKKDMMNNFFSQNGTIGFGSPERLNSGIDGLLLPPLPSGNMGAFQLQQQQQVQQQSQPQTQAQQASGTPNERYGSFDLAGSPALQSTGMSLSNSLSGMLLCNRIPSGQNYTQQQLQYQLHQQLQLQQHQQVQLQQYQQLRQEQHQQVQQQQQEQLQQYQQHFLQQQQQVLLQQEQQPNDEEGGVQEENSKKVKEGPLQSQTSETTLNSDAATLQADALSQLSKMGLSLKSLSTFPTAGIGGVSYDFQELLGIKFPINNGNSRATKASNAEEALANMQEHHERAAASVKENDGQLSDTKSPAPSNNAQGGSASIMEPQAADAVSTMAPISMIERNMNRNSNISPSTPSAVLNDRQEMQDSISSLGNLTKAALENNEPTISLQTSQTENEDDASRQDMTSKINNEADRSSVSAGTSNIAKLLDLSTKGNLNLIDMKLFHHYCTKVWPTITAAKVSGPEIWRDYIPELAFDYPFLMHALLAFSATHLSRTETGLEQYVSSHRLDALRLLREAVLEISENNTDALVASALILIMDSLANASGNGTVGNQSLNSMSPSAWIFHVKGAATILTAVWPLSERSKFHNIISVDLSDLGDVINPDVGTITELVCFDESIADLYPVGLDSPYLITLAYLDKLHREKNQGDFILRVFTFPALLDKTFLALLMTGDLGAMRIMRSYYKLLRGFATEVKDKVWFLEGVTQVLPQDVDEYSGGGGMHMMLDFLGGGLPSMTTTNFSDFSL
# Assay: PBM E-score (8-mer binding enrichment) (E-score (-0.5 to 0.5)); higher = stronger / more preferred TF binding; most listed sequences are background and not binding sites
# Conditions: protein concentration: 200 nM; construct: GST-full length
# Summary of the method: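 Masliner-normalised scans of fluorescent anti-GST signal were the basis for scoring. That signal came from GST-tagged yeast transcription factors applied at about 100-200 nM to double-stranded universal all-10-mer Agilent arrays on fresh or once-stripped slides. Each ungapped eight-base word, pooled with its reverse complement, received an E-score from the Universal PBM Analysis Suite.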
row,Sequence,PBM E-score
1,AGCGCGCC,-0.0978
2,AGGACAGC,-0.0574
3,GACACCCC,-0.0621
4,CACTAACC,-0.114
5,ACAAGTGA,-0.174
6,CGAAGTGA,0.243
7,TAACCGAA,0.286
8,ATCTGATC,-0.184
9,GGTGAATA,-0.224
10,AAACAGAC,-0.0937
11,ACGGACTA,0.0376
12,CCGTCGCC,-0.044
13,CGCTTAAG,0.311
14,AGGGCATC,-0.215
15,CATGCGTA,0.275
16,CCAAGAAA,-0.281
17,TGCACGCA,-0.071
18,AATACTAA,0.0618
19,ATCAAAAT,0.019
20,GGTAGGAA,-0.196
21,AACGTTCA,0.212
22,CCAAGGTC,-0.318
23,GCGGTCTA,0.048
24,AGCAATTG,-0.0614
25,ACGCAGCT,0.156

row,Sequence,PBM E-score
1,GGAACCAC,-0.0411
2,CATCCAGG,-0.381
3,ATATACTC,-0.0113
4,CACTATAA,-0.126
5,AAGCCGGC,-0.385
6,AGCGTATA,0.444
7,CCTTGTAC,0.119
8,CCCCATAC,0.174
9,AGCTCAGG,-0.183
10,AGTTTTGG,-0.0774
11,GTGACCTA,-0.106
12,AAATCCGA,0.14
13,CGTGGTAG,-0.212
14,CGCTGATC,-0.00472
15,CAACTACA,-0.172
16,CCCTGGGA,-0.225
17,GCCAGCCA,-0.126
18,ATGTACCA,-0.0534
19,CGGTGGAC,-0.175
20,GACATGGA,-0.0806
21,CCTGGAGA,-0.251
22,GATGTGAC,-0.0117
23,CACTCGAG,0.0587
24,GATCGATC,-0.03
25,CCTCCTCC,-0.105

row,Sequence,PBM E-score
1,GCTTACAA,-0.0171
2,AGCCTCGA,0.036
3,AAAGGGAT,-0.154
4,AGAAAGCC,-0.103
5,CTCTCCTC,-0.201
6,ACCCGCGG,-0.084
7,CGTTCTAC,0.264
8,CAAGAAAA,-0.0476
9,TACCCGCA,0.0567
10,CAATGGAG,-0.254
11,AGTCACCG,-0.0692
12,AGAAACCC,-0.239
13,TAATGTAA,-0.0142
14,AGCAGCCA,-0.0202
15,GACTTGAA,0.0308
16,CCCTGAAG,-0.16
17,AAGGGCCG,0.0321
18,GGTACCCA,-0.0644
19,CTCGGGCA,-0.0343
20,CTTAGTGA,-0.151
21,AGACCATA,0.134
22,CGAGCCGA,0.0905
23,ATGACTCC,-0.331
24,GCAAGTCC,-0.216
25,AACATGCC,-0.00673

row,Sequence,PBM E-score
1,CCGCTACA,-0.0599
2,ATTACCAA,-0.131
3,AGAGATCC,-0.111
4,CTAGCCGC,-0.214
5,CCACTTAC,0.187
6,GGCGCGCC,0.0859
7,ACTACAAT,0.0165
8,ATTGCAAG,0.0216
9,AGATCACA,-0.0727
10,AAGGCTAT,-0.103
11,AGGCAGAA,-0.0504
12,CATGTGGC,-0.146
13,CCCGAAAG,0.00835
14,CGATCTAC,0.0957
15,GTTGCTAA,0.137
16,CTGTGAAG,-0.129
17,CCCTGTGA,-0.153
18,CGAACAGC,0.101
19,CCTGTTAC,0.0437
20,ATTTCCCA,0.0444
21,ATAACACG,0.089
22,AGGCATCC,-0.168
23,GGAAGTTA,0.092
24,AATCAAAC,0.188
25,CCCCCCGG,-0.291

row,Sequence,PBM E-score
1,GGTTCATA,0.0774
2,GGTACTAA,-0.0237
3,ACAATCGT,0.221
4,GTGGCTAA,-0.0315
5,ACGATCCC,0.231
6,CCAAGCGG,-0.271
7,ACCTGATA,-0.173
8,CCCGTTCA,0.291
9,CCAACAGG,-0.162
10,CTATATAC,0.358
11,AAAGGGGG,-0.177
12,TTGACAAA,0.0582
13,CGTCCATA,-0.095
14,GCGGTATA,0.151
15,GGCCACCA,-0.136
16,CGGAATTA,0.216
17,AGAGCAAG,-0.118
18,ACACGAGT,0.162
19,AACCTTAT,-0.285
20,ACTCCGGA,0.0907
21,AACGGATA,0.274
22,CCAGTCAA,-0.167
23,ACGGGCAC,0.124
24,CGCGAGGC,0.177
25,AATAGATC,0.0449

row,Sequence,PBM E-score
1,CCTTAGCC,-0.122
2,TCTAAAGA,-0.125
3,ATGCGAAT,0.27
4,AATAATGA,-0.119
5,GAAAATGA,-0.0662
6,CGATAAGC,0.0703
7,TGGAGGAA,-0.185
8,AGATAGGG,-0.167
9,AGACCAAG,-0.187
10,GAATGCAA,0.0555
11,ACCGGTAC,0.164
12,AAGTCATC,0.00224
13,AGAAGGCC,0.0878
14,AAGAACGG,0.0306
15,CTGCCAAA,0.077
16,CGATTCTA,0.0126
17,AAAAGTCC,-0.104
18,AGTCCACT,-0.27
19,AAGAAGGT,-0.0621
20,CTACCGCC,-0.244
21,ACGATTAG,0.303
22,GTGTTTAA,0.0238
23,GCAAAAGA,-0.161
24,ATAGCCCG,-0.0824
25,AGGGACTG,-0.415

row,Sequence,PBM E-score
1,ATACGCGG,0.354
2,CTTCGCTC,0.208
3,CTGCCGTC,-0.00574
4,GAAATCCA,0.0117
5,GGTTAATA,-0.0728
6,CAGCTGGG,-0.0854
7,CTAACGAA,0.287
8,GGGTGAAC,-0.0188
9,CTGTTCGA,-0.0926
10,AAGTGATT,-0.0562
11,ATTCCTCC,-0.173
12,CTGTTGCC,-0.178
13,GACTTTTA,-0.119
14,ATAGACCG,-0.0557
15,AACGAGTA,0.437
16,CGTGGATA,0.169
17,ATCCAGTC,-0.12
18,AAGCGGTC,-0.121
19,ACGTTCAG,0.17
20,GCGGTACA,-0.0545
21,AGCACACT,-0.00256
22,AGACTACC,0.00168
